Source: the supplement of paper PMC12217912
This is one part of the list. Sequences were assembled here from the parent chain. Inactive controls read about 0.05.

B1: TEV protease; numbered along this chain (parent)
chain: MGESLFKGPRDYNPISSSICHLTNESDGHTTSLYGIGFGPFIITNKHLFRRNNGTLVVQSLHGVFKVKDTTTLQQHLVDGRDMIIIRMPKDFPPFPQKLKFREPQREERICLVTTNFQTKSMSSMVSDTSCTFPSGDGIFWKHWIQTKDGQCGSPLVSTRDGFIVGIHSASNFTNTNNYFTSVPKNFMELLTNQEAQQWVSGWRLNADSVLWGGHKVFMVKPEEPFQPVKEATQL

Variants of: B1
Assay: raw area under fraction-flipped curve 0-4 h after induction (AUC4h, not background-subtracted), DNA-recorder readout of cleavage of the substrate (dimensionless); higher = more cleavage of the substrate by the protease variant
Settings: temperature: 34 °C; time window: 0-4 h after rhamnose induction
Description: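 In vivo DNA recorder in E. coli TOP10(DE3) ΔrhaA at 34 °C. Each TEVp single-site mutant (parent TEVp 0) is paired with a single-site variant of the 7-mer TEVs (canonical ENLYFQ|S). The substrate sits between flexible linkers in a Bxb1-sfGFP-TEVs-SsrA fusion, so cleavage stabilises Bxb1 and speeds flipping of a recombination array, read by NGS. The value is the raw area under the fraction-flipped curve over 0-4 h after rhamnose induction (AUC4h), with ≥20 reads per time point. It is not background-subtracted; inactive controls average about 0.047.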
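Note: Bxb1 expression induced with 0.2% (w/v) L-rhamnose at OD600 near 0.5, cultures sampled hourly, flipped fraction per protease–substrate barcode pair counted by paired-end Illumina sequencing.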

Row | Variant | area with substrate EALYFQS | area with substrate ECLYFQS | area with substrate EDLYFQS | area with substrate EELYFQS | area with substrate EFLYFQS | area with substrate EHLYFQS | area with substrate EILYFQS | area with substrate EKLYFQS | area with substrate ELLYFQS | area with substrate EPLYFQS | area with substrate ESLYFQS | area with substrate ETLYFQS | area with substrate EVLYFQS | area with substrate EGLYFQS | area with substrate EQLYFQS | area with substrate ERLYFQS | area with substrate EWLYFQS | area with substrate EYLYFQS | area with substrate EMLYFQS
1 | C20S | 0.0867 | 0.0847 | 0.0979 | 0.101 | 0.086 | 0.094 | 0.0777 | 0.0885 | 0.0521 | 0.0936 | 0.088 | 0.0791 | 0.0813 | – | – | – | – | – | –
2 | C20T | 0.108 | 0.0894 | 0.121 | 0.111 | – | 0.0985 | 0.0945 | 0.107 | 0.0779 | 0.079 | 0.101 | 0.0777 | 0.0879 | 0.0907 | 0.0908 | 0.0737 | 0.0883 | 0.106 | –
3 | C20V | 0.126 | 0.102 | – | 0.13 | 0.116 | 0.123 | 0.103 | 0.129 | 0.108 | 0.147 | 0.104 | – | 0.104 | 0.126 | 0.159 | 0.16 | 0.108 | 0.118 | 0.134
4 | L22R | 0.0382 | – | 0.039 | – | – | 0.0625 | 0.0441 | 0.0525 | 0.0664 | 0.0552 | 0.0446 | – | 0.0396 | 0.0458 | – | 0.0571 | 0.042 | 0.103 | –
5 | L22T | 0.0634 | 0.0563 | 0.0531 | 0.059 | – | 0.0451 | 0.0487 | – | 0.0498 | 0.088 | 0.0499 | – | 0.0516 | 0.0535 | 0.0596 | 0.0551 | – | 0.0331 | –
6 | E25Q | 0.137 | 0.125 | – | 0.135 | 0.127 | – | – | – | – | 0.0956 | 0.0088 | 0.104 | 0.101 | 0.0889 | 0.138 | 0.0952 | 0.102 | 0.118 | 0.107
7 | S26A | 0.0337 | 0.094 | 0.106 | 0.0837 | 0.0852 | 0.0859 | 0.0805 | 0.102 | 0.0969 | 0.129 | 0.0934 | 0.099 | 0.0876 | 0.0773 | 0.0522 | 0.0843 | 0.0874 | 0.0906 | 0.102
8 | S26G | 0.134 | 0.118 | – | 0.118 | 0.0902 | – | – | – | – | 0.0959 | 0.0912 | 0.104 | – | – | – | 0.0922 | 0.0879 | 0.0673 | –
9 | S26T | 0.095 | 0.0988 | – | – | 0.094 | 0.0817 | 0.0888 | 0.0974 | 0.0674 | 0.0795 | 0.1 | 0.0951 | 0.0889 | – | 0.125 | – | – | – | 0.101
10 | D27T | 0.0917 | 0.0828 | – | – | – | 0.0769 | 0.0888 | 0.0843 | 0.0711 | 0.108 | 0.0747 | – | 0.0699 | – | 0.102 | 0.0923 | 0.0784 | – | –
11 | G28A | 0.14 | 0.0989 | 0.172 | – | – | – | 0.086 | – | 0.0864 | 0.126 | 0.0944 | – | 0.0896 | 0.0992 | 0.112 | 0.0796 | 0.0771 | 0.0999 | 0.116
12 | G28E | 0.103 | 0.0925 | 0.122 | 0.0836 | – | 0.0974 | 0.0865 | – | – | – | 0.107 | 0.129 | 0.0945 | 0.0722 | 0.112 | 0.104 | 0.101 | 0.0842 | –
13 | G28N | 0.0979 | – | 0.108 | – | 0.12 | – | 0.0901 | 0.0939 | 0.116 | – | 0.0884 | – | 0.0755 | – | 0.0947 | 0.11 | – | – | –
14 | G28P | 0.0708 | 0.053 | – | 0.0696 | 0.0776 | 0.12 | 0.0678 | 0.0734 | – | 0.0863 | 0.0683 | 0.0769 | – | – | 0.0875 | 0.0755 | – | 0.0826 | –
15 | G28R | 0.0897 | 0.0836 | 0.14 | 0.117 | 0.0931 | 0.0997 | 0.0778 | 0.101 | 0.108 | – | 0.088 | 0.0749 | 0.0871 | 0.0726 | 0.0912 | 0.0919 | – | – | –
16 | G28W | 0.145 | 0.0797 | 0.0896 | – | 0.0724 | 0.0741 | 0.0696 | 0.0842 | 0.0695 | 0.101 | 0.0889 | – | 0.0691 | 0.0628 | 0.0843 | 0.0951 | 0.0788 | 0.0534 | –
17 | T30G | 0.12 | 0.115 | 0.125 | – | 0.116 | 0.1 | 0.0726 | 0.0878 | 0.0926 | 0.0889 | 0.0994 | – | 0.111 | 0.0878 | 0.113 | 0.0802 | – | 0.0749 | 0.0963
18 | Y34F | 0.0922 | 0.103 | – | 0.121 | 0.12 | – | 0.108 | – | 0.0902 | 0.116 | 0.0598 | 0.122 | 0.0689 | 0.0814 | – | 0.0978 | – | – | 0.106
19 | I36L | 0.136 | – | 0.137 | 0.146 | – | 0.105 | 0.102 | 0.118 | 0.0914 | 0.143 | 0.119 | – | 0.104 | 0.081 | 0.133 | – | 0.0858 | 0.105 | 0.1
20 | G37E | 0.0546 | 0.0522 | – | 0.0643 | 0.0233 | – | 0.0438 | 0.0507 | 0.055 | 0.0533 | 0.0548 | – | 0.0428 | 0.0291 | 0.0583 | 0.0442 | 0.0556 | 0.065 | 0.0529
21 | F38A | 0.0889 | 0.0943 | 0.0806 | – | – | 0.0792 | 0.0783 | 0.0858 | 0.0573 | – | 0.053 | 0.0875 | 0.0528 | – | 0.0873 | – | – | – | 0.0851
22 | F38L | 0.0945 | 0.0872 | 0.0877 | 0.101 | – | 0.0863 | 0.0762 | 0.102 | 0.0679 | 0.103 | 0.0848 | 0.0784 | 0.0679 | 0.0734 | 0.113 | 0.0871 | – | 0.0907 | 0.105
23 | F38M | 0.0923 | 0.0875 | 0.117 | 0.107 | – | 0.0724 | 0.0736 | 0.0933 | 0.0774 | 0.109 | 0.0884 | – | 0.0847 | 0.0783 | 0.099 | 0.0899 | 0.0923 | 0.0829 | 0.0995
24 | F41V | 0.0995 | 0.0957 | – | 0.107 | 0.12 | – | 0.0978 | 0.108 | 0.0858 | 0.101 | 0.101 | – | 0.0813 | 0.0996 | 0.0889 | 0.0948 | 0.0864 | 0.0858 | –
